{"source": "paper PMC4336329", "about": "(PLoS ONE, 2015)", "note": "About 2,200 (0.71%) of roughly 310,000 compounds showed an effect of 50% or more. The effect is printed as a negative number. The list shows a part of the results.", "data": [{"target": "human ether-à-go-go-related gene (hERG) potassium channel (human, UniProt Q12809)", "sequence (Q12809 whole entry, looked up)": "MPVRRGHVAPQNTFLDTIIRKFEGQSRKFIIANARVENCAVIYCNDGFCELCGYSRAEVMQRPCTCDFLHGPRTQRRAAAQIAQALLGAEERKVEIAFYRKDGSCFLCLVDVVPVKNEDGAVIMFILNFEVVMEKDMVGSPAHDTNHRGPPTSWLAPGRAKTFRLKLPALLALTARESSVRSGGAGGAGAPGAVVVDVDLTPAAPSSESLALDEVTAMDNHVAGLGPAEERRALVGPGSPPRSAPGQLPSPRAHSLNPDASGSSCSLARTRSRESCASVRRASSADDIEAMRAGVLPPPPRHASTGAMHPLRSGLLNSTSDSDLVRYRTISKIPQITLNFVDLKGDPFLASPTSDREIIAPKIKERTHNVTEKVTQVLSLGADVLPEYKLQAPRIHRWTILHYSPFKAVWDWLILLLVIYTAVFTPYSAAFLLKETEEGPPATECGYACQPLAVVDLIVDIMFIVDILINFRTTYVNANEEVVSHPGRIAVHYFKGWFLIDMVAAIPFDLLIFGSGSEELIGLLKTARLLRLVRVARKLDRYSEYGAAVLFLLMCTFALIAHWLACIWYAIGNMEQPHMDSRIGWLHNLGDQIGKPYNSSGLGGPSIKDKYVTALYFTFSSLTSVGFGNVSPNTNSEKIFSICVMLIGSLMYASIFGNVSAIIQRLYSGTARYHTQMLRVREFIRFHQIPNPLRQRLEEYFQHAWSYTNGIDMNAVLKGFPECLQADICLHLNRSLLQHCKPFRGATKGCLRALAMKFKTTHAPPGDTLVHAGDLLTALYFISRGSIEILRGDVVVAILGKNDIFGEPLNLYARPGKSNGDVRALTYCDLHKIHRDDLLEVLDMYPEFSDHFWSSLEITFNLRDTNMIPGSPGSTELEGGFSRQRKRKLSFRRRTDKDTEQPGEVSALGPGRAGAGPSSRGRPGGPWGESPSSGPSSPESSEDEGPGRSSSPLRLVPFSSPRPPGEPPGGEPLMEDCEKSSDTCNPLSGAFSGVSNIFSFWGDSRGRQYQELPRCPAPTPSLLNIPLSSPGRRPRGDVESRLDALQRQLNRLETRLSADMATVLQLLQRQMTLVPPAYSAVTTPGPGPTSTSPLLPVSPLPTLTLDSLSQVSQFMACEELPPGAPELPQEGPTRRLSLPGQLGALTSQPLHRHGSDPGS", "experiment": "primary screen, population patch clamp on CHO cells stably expressing hERG", "units": {"hERG current change (%, negative = inhibition) at 1uM": "%"}, "values": [{"smiles": "O=C(Cc1ccccc1)NC1CCN(S(=O)(=O)c2cccc(F)c2)CC1", "hERG current change (%, negative = inhibition) at 1uM": 10.5}, {"smiles": "CC(=O)COc1cc(C)cc2oc(=O)c(C)c(C)c12", "hERG current change (%, negative = inhibition) at 1uM": -9.42}, {"smiles": "CC(=O)c1ccc(NC(=O)c2cc(-c3cccs3)on2)cc1", "hERG current change (%, negative = inhibition) at 1uM": 14}, {"smiles": "CCOC(=O)c1c(NC(N)=O)nc2n1CCC2", "hERG current change (%, negative = inhibition) at 1uM": 1.94}, {"smiles": "Cc1c(NC(=O)/C(C#N)=C/c2ccc(-c3ccc(Cl)cc3)o2)c(=O)n(-c2ccccc2)n1C", "hERG current change (%, negative = inhibition) at 1uM": 2.8}, {"smiles": "Cc1ccc(C(=O)COC(=O)COc2ccccc2C)cc1", "hERG current change (%, negative = inhibition) at 1uM": 3.93}, {"smiles": "O=C(O)C1CCCN1S(=O)(=O)c1ccc(Cl)cc1", "note": "(stereo not drawn)", "hERG current change (%, negative = inhibition) at 1uM": 6.21}, {"smiles": "CC(=O)N1CC=CC1(C)C(=O)O", "note": "(stereo not drawn)", "hERG current change (%, negative = inhibition) at 1uM": 23.3}, {"smiles": "CNC(=S)NC1CC2CCCC(C1)N2Cc1ccc(C)cc1", "note": "(stereo not drawn)", "hERG current change (%, negative = inhibition) at 1uM": -4.5}, {"smiles": "Cc1cccc(OCC(=O)NC2CCCC2)c1", "hERG current change (%, negative = inhibition) at 1uM": 14.5}, {"smiles": "CC(NC(=O)N1CCOCC1)c1ccccc1", "note": "(stereo not drawn)", "hERG current change (%, negative = inhibition) at 1uM": 13.8}, {"smiles": "Nc1nnc(C(c2ccccc2)c2ccccc2)s1", "hERG current change (%, negative = inhibition) at 1uM": 6.58}, {"smiles": "O=C(Nc1ccc(N2CCCC2)c(S(=O)(=O)Nc2cccc(C(F)(F)F)c2)c1)c1cccs1", "hERG current change (%, negative = inhibition) at 1uM": 16.2}, {"smiles": "O=C(CNc1cccc(Cl)c1)c1ccc(Cl)cc1", "hERG current change (%, negative = inhibition) at 1uM": -8.39}, {"smiles": "N#CC1=C(N)Oc2c(oc(CO)cc2=O)C1c1ccsc1", "note": "(stereo not drawn)", "hERG current change (%, negative = inhibition) at 1uM": 14.9}, {"smiles": "O=C(O)CCCNC(=O)c1ccccn1", "hERG current change (%, negative = inhibition) at 1uM": 11.1}, {"smiles": "CC(Oc1ccccc1)C(=O)Nc1ccc(S(=O)(=O)N2CCOCC2)cc1", "note": "(stereo not drawn)", "hERG current change (%, negative = inhibition) at 1uM": 4.11}, {"smiles": "Cc1cccc(N(C(=O)c2csnn2)C(C(=O)NC(C)(C)C)c2cccs2)c1", "note": "(stereo not drawn)", "hERG current change (%, negative = inhibition) at 1uM": 0.549}, {"smiles": "C=CCOc1ccc(CNc2nccs2)cc1", "hERG current change (%, negative = inhibition) at 1uM": 2.92}, {"smiles": "COc1cccc(NC(=O)COC(=O)C2C3CC4OC(=O)C2C4C3)c1", "note": "(stereo not drawn)", "hERG current change (%, negative = inhibition) at 1uM": 10}, {"smiles": "O=C(C1=C[C@H](c2ccc(C(F)(F)F)cc2)C[C@H](OCc2ccc(CO)cc2)O1)N1CCN(Cc2ccccc2)CC1", "hERG current change (%, negative = inhibition) at 1uM": 11.1}, {"smiles": "CN(CC(=O)Nc1ccccc1F)S(=O)(=O)c1ccc2c(c1)n(C)c(=O)c(=O)n2C", "hERG current change (%, negative = inhibition) at 1uM": 1.5}, {"smiles": "COc1ccc(N(CC(=O)N2CCN(Cc3ccccc3)CC2)S(C)(=O)=O)cc1OC", "hERG current change (%, negative = inhibition) at 1uM": 7.08}, {"smiles": "COc1ccc(CCNC(=O)[C@@H](NC(=O)N2CCn3c2nc2ccccc23)C(C)C)cc1OC", "hERG current change (%, negative = inhibition) at 1uM": 6.99}, {"smiles": "CNC(=O)[C@@]1(C)C=C[C@@H](Cc2ccccc2)N1C(=O)OC", "hERG current change (%, negative = inhibition) at 1uM": 17.3}, {"smiles": "CCN1CC2(COC(=O)c3ccccc3N)CCC(OC)C34C5CC6C(OC)CC(O)(C5C6OC)C(O)(C(OC)C23)C14", "note": "(stereo not drawn)", "hERG current change (%, negative = inhibition) at 1uM": 3.14}, {"smiles": "CCOC(=O)N1CCC(NCCNC(=O)c2ccccc2)CC1.Cl", "hERG current change (%, negative = inhibition) at 1uM": 5.68}, {"smiles": "CCC(C)NCCOCCOc1ccccc1-c1ccccc1.O=C(O)C(=O)O", "note": "(stereo not drawn)", "hERG current change (%, negative = inhibition) at 1uM": -2.95}, {"smiles": "Cc1cccc(NC(=O)CSc2nnc(-c3cc(C)n(-c4ccccc4)c3C)o2)c1C", "hERG current change (%, negative = inhibition) at 1uM": 10.9}, {"smiles": "CCOC(=O)C(Cc1ccccc1)C(=O)Nc1cccc2ccccc12", "note": "(stereo not drawn)", "hERG current change (%, negative = inhibition) at 1uM": 9.89}, {"smiles": "Cc1cc(C(=O)NCC(=O)Nc2c(C)cccc2C)c(C)o1", "hERG current change (%, negative = inhibition) at 1uM": 10.8}, {"smiles": "COc1ccc(-n2cc(CNCCc3cnc[nH]3)c(-c3cccc(F)c3)n2)cc1", "hERG current change (%, negative = inhibition) at 1uM": -5.18}, {"smiles": "Cn1c(COc2nnc(-c3ccc(Cl)cc3)c3ccccc23)nc2ccccc21", "hERG current change (%, negative = inhibition) at 1uM": 13.8}, {"smiles": "CCC[N+]1(CC#CCC(c2ccccc2)c2ccccc2)CCCCC1.[Br-]", "hERG current change (%, negative = inhibition) at 1uM": -24.4}, {"smiles": "O=C(Nc1ccc(S(=O)(=O)Nc2cnc3ccccc3n2)cc1)c1ccc([N+](=O)[O-])cc1Cl", "hERG current change (%, negative = inhibition) at 1uM": 9.39}, {"smiles": "COc1ccccc1NC(=O)Oc1cccc(OC(=O)c2ccccc2)c1", "hERG current change (%, negative = inhibition) at 1uM": 11.4}, {"smiles": "CC(C)CCOP(N)(=O)Oc1ccccc1Cl", "note": "(stereo not drawn)", "hERG current change (%, negative = inhibition) at 1uM": 13.5}, {"smiles": "COc1ccc(-c2csc3ncn(-c4ccccc4)c(=O)c23)cc1OC", "hERG current change (%, negative = inhibition) at 1uM": 10.5}, {"smiles": "O=C(CN1CCOCC1)Nc1cccc(C(=O)Nc2cccc(C(F)(F)F)c2)c1", "hERG current change (%, negative = inhibition) at 1uM": -7.81}, {"smiles": "CCC(c1nnc(SCC(=O)N2CCOCC2)n1C1CCCCC1)N(C)C", "note": "(stereo not drawn)", "hERG current change (%, negative = inhibition) at 1uM": 3.69}, {"smiles": "COc1cc(OC)nc(S(C)(=O)=O)n1", "hERG current change (%, negative = inhibition) at 1uM": 3.43}, {"smiles": "C/C=C(/C)C(=O)Nc1cccc(C2=NOC3(C2)C[C@@H](C(N)=O)N(C(=O)c2ccc(OC)cc2)C3)c1", "note": "(stereo partly drawn)", "hERG current change (%, negative = inhibition) at 1uM": 13.9}, {"smiles": "COc1ccc(Nc2ccc([N+](=O)[O-])cn2)cn1", "hERG current change (%, negative = inhibition) at 1uM": 13.2}, {"smiles": "O=C(c1ccc(F)cc1F)N1CCN(c2ncccn2)CC1", "hERG current change (%, negative = inhibition) at 1uM": 7.76}, {"smiles": "Cc1nnc(Nc2ccccc2F)s1", "hERG current change (%, negative = inhibition) at 1uM": 10}, {"smiles": "COc1ccccc1C(=O)NC(=O)COC(=O)c1ccc([N+](=O)[O-])cc1Cl", "hERG current change (%, negative = inhibition) at 1uM": 12}, {"smiles": "Cc1ccc(C2(CCN)CCOC(C(C)C)C2)cc1", "note": "(stereo not drawn)", "hERG current change (%, negative = inhibition) at 1uM": 16.8}, {"smiles": "O=C(/C=C/c1ccccc1[N+](=O)[O-])N1CCN(C(=O)c2ccco2)CC1", "hERG current change (%, negative = inhibition) at 1uM": -9.07}, {"smiles": "CCOC(=O)c1ccc(NC(=S)N2CCN(CCO)CC2)cc1", "hERG current change (%, negative = inhibition) at 1uM": 15.9}, {"smiles": "COc1ccc(OC)c(S(=O)(=O)N2CCC(C(=O)Nc3ccccc3)CC2)c1", "hERG current change (%, negative = inhibition) at 1uM": 7.24}, {"smiles": "O=C(C1CCC(N2C(=O)C3CC=CCC3C2=O)CC1)N1CCCCC1", "note": "(stereo not drawn)", "hERG current change (%, negative = inhibition) at 1uM": 15.7}, {"smiles": "FC(F)(F)c1cnc(NNC(=S)Nc2cccnc2)c(Cl)c1", "hERG current change (%, negative = inhibition) at 1uM": 9.31}, {"smiles": "O=C(NCCN1CCOCC1)c1ccccc1Cl", "hERG current change (%, negative = inhibition) at 1uM": 14.1}, {"smiles": "C=CCc1ccc(OCCOCCOc2cccc3ccc(C)nc23)c(OC)c1.O=C(O)C(=O)O", "hERG current change (%, negative = inhibition) at 1uM": -12.7}, {"smiles": "Cc1ccc(S(=O)(=O)N[C@@H](CC(C)C)C(=O)N2CCC(C(=O)N[C@H](C(=O)O)C(C)C)CC2)cc1", "hERG current change (%, negative = inhibition) at 1uM": 5.25}, {"smiles": "COc1cc(NC(=O)C2CC(=O)NC3=C2C(=O)CCC3)cc(OC)c1", "note": "(stereo not drawn)", "hERG current change (%, negative = inhibition) at 1uM": 18.6}, {"smiles": "Cc1cccc(-n2nc3c(c2NC(=O)c2ccc(Br)o2)CSC3)c1C", "hERG current change (%, negative = inhibition) at 1uM": 1.4}]}]}
